The list shows a part of the results.
B1: chr11:100882373:100882374:+_ENSMUSG00000019302_ENSMUST00000044721|mus_mus|mus_mus_mus_hu_True|38_48 (ssRNA)
RNA: GGGAGUUCUACAGUCCGACGAUCUUCCUGGUUUGUGUUGAUUUCCUUCAGUUCAUUUUCAAUCUUCUCAAAAUUGGCCUCUAAGUCGAUCAUGUCCCGAGGGAAGGGAACCUCUGGGUUUUCACCGGUGUCCAUAAUCGGAAUCAACAGAGGAUUGAGCAUCA
B2: chr6:8205991:8205992:-_ENSMUSG00000012483_ENSMUST00000012627|mus_hu|FALSE|FALSE (ssRNA)
RNA: GGGAGUUCUACAGUCCGACGAUCUAAUAAAAUAGAAACUUAGACUCGGACAACUGCUUUAUUCUUGCAUCUAAUCUGACCAUAUAUUGGAGUAGCAAUUCUUUAUAAAAGGACUUCGGUGAGAACUGUCAAUAUAUCAGUUCCCAACAGAGGAUUGAGCAUCA
B3: 35792141_35795328_1781_3pUTR_ENSMUSG00000020590_ENSMUST00000048519|mouse|control|control (ssRNA)
RNA: GGGAGUUCUACAGUCCGACGAUCUUAUGCUUCCUGUAGGAGACCCAUUAAAAGAUUCUCCAUCCCCAUCAUCUGAUCCUCUGAAACUAGGAUCUUUUAACAUGUCAAGCUCAGCUAGCAUUCGCACAUAGAGCGCAUUCUGCCCAACAGAGGAUUGAGCAUCA
B4: 56733260_56733380_582_CDS_ENSMUSG00000071054_ENSMUST00000095224|mouse|control|control (ssRNA)
RNA: GGGAGUUCUACAGUCCGACGAUCGGCCUCCUCCUCUUCCUCCACACAGUCUGCCACGCUGCCAUUGUCAAUGUCAGCCUCAUCCAGCACACUGAUGUCCAUCAUAUCCAUGUCUUGCAGGUUCUCCAGGCUGGUCUCCACAUCCAACAGAGGAUUGAGCAUCA
B5: chr17:5336369:5336370:-_ENSG00000108561_ENST00000225698|hu_mus|FALSE|FALSE (ssRNA)
RNA: GGGAGUUCUACAGUCCGACGAUCAAGGCCCGCAGUCUCUGAGUUCUACUGGUUCUUGACAAAGCUUUUGAGGUCCUCAAGAAAGGUGAUAUAUUCCUGGUGCUCCAGGGCUGUGCUGAGCUCCACCAACUCAUCCGCAAAAGUCAACAGAGGAUUGAGCAUCA
B6: chr19:16212804:16212805:+_ENSG00000167460_ENST00000300933|hu_mus|hu_hu_hu_mus_False|48_78 (ssRNA)
RNA: GGGAGUUCUACAGUCCGACGAUCAACAAUUCUGGAGUGAAGGAAAGAUGUAACAUGCAAUUAAUUAAAAGCUCAGUCAGAAGGCACGUGGGUAAUUAUGAUCACCCCAGCAUUCUCGCUUGGAAUGCUUAAAGACAAUCUGUUCAACAGAGGAUUGAGCAUCA
B7: 62764597_62776314_962_3pUTR_ENSMUSG00000028358_ENSMUST00000107415|mouse|control|control (ssRNA)
RNA: GGGAGUUCUACAGUCCGACGAUCUGGAGAUGGGGUGACCUCUGGAUGGGAACACUCAGAACCCGUGUCUGGAUCUUCCGGUGGCUCCCACCCGGGGGCGGUACUGAUGGGGGCAUGUAAGGCCACGUGCUCCUGGUAGGGCGUCAACAGAGGAUUGAGCAUCA
B8: chr1:23884524:23884525:-_ENSG00000117318_ENST00000374561|perfect_dup|FALSE|FALSE (ssRNA)
RNA: GGGAGUUCUACAGUCCGACGAUCUUUAAUAUACAUCACAUGAUUACAGAAAGUCACCUUCCUGUAAAAAAGGUACAAAAGCUAUAUACUCUAUUAUAGAGUUCAUAAUCAGGGCAGCAGAGCUUUUCUCCAAGGAAACCAGAACAACAGAGGAUUGAGCAUCA
B9: chr4:99997899:99997900:-_ENSG00000197894_ENST00000296412|hu_hu|motif|central (ssRNA)
RNA: GGGAGUUCUACAGUCCGACGAUCAGGCUCCAACUUGGCAGUGUUCACAGCAGCACCAUAACCGGUUGAAAUGCCACAACCGGGAAGGCAGACUUUAUCCAAAGGUGCUAAAGGAUCUAUUUUAGCAACAGAGAUAUCAGCCACCAACAGAGGAUUGAGCAUCA
B10: chr21:33032072:33032073:+_ENSG00000142168_ENST00000270142|hu_mus|FALSE|FALSE (ssRNA)
RNA: GGGAGUUCUACAGUCCGACGAUCUGCACCGGACCGUCGCCCUUCAGCACGCACACCGCUUUCAUCGCCAUGCUUCCCCGGGAGACGCGCGGCGGCCUCCUCCGGAGGGACCAGAGAGAGCAAGACGAGAAGCCGACGGACGGACAACAGAGGAUUGAGCAUCA
B11: chr8:81896215:81896216:-_ENSMUSG00000031681_ENSMUST00000066091|mus_mus|FALSE|FALSE (ssRNA)
RNA: GGGAGUUCUACAGUCCGACGAUCAGAUUUCAGUAUAUUUACAUAGAUUCUCCUUAGCUUCUUGGUCUGCGGUUUGGAAAGGUAGAAAAUACUGUCCCUCCUGUUCCAGCGAGGAUCCCAGUUAGCGCCGGCUCGGCGGCGCGCCAACAGAGGAUUGAGCAUCA
B12: chr16:94690093:94690094:+_ENSMUSG00000040785_ENSMUST00000117648|mus_hu|mus_mus_mus_hu_True|8_108 (ssRNA)
RNA: GGGAGUUCUACAGUCCGACGAUCGGGGACUCCUGUGGGACACACAGCCUCGAUUCCAGGGGGAAAAAGUCUUAGUCGAUACUAAUUAAAAAGUGUUAAUGAUUUUUGAAAAUCAGAUUACAUCUAUUUGAAUCAUAAAGCAAACAACAGAGGAUUGAGCAUCA
B13: 119122325_119122445_1707_CDS_ENSG00000182197_ENST00000378204|human|control|control (ssRNA)
RNA: GGGAGUUCUACAGUCCGACGAUCCUCAUACUCGGUGUUGUCUCUGUCACAGCGAGAAUCCUUGUGCUUUUGCCAGUCUUUGCCAUGCUUGCAGGUGGUGAGGAGCACAACGUCCUCCCCGUUAUGGACGUGAUAUAAGGCAUUCAACAGAGGAUUGAGCAUCA
B14: chr3:9412954:9412955:+_ENSG00000134077_ENST00000452837|hu_mus|hu_hu_hu_mus_False|1_18 (ssRNA)
RNA: GGGAGUUCUACAGUCCGACGAUCGGUUGAUAUCUCUUCUUUGAUGGCUGGAUUUUCAUAAUAGUCCAAGAUAUGUGAAUCUGAAGUGCUGCUGGCAUGCUUUUUCUUACCAUCUUUCUGAUCGAUUUUGUCUCCUUGUCCAUUCAACAGAGGAUUGAGCAUCA
B15: 30667270_30713170_122_5pUTR_ENSMUSG00000062202_ENSMUST00000168787|mouse|control|control (ssRNA)
RNA: GGGAGUUCUACAGUCCGACGAUCGGCUGUUACUCAUCCUGUGGAACAGAUGAUAGUCACUGGCCCCGACGAUGUCCCUCAGCGACCUAGAAGCCGCCACACACGUCUCUUCCGCCAGCAGCGACCCCGCCUCGUGGCCACCGCCAACAGAGGAUUGAGCAUCA
B16: 36945257_36945377_3780_CDS_ENSMUSG00000029190_ENSMUST00000132383|mouse|control|control (ssRNA)
RNA: GGGAGUUCUACAGUCCGACGAUCUACUACUCUGCAGGGUCAGAGAUGUGUUCGGGAGAAGAGCUCCUCUCUGCUGGGGCCCACCCACUCUCCGCCGGCUUCGGAGCCUGUGUCGCCCGUGUCAGAGCUGGCACUGGAACACAUCAACAGAGGAUUGAGCAUCA
B17: chr1:36558744:36558745:+_ENSG00000116863_ENST00000373178|hu_hu|FALSE|FALSE (ssRNA)
RNA: GGGAGUUCUACAGUCCGACGAUCAAUGGUGUCUGUGUCCCCACCAAGUGAGAUGGAAUAAAUGAGAGUCCUUUGGAGGCUAUUGAAGGCAGAAGGGAUCUCAGGGUCUGGCUCCAUGCAGCGUAGGAAGCAGUAGAUGGCGGUCAACAGAGGAUUGAGCAUCA
B18: 104849607_104851902_698_CDS_ENSMUSG00000021710_ENSMUST00000109315|mouse|control|control (ssRNA)
RNA: GGGAGUUCUACAGUCCGACGAUCAAUGCAUAGCUCACUCAUUCUCUUCUUCAUUGAUUUGAUUUCAUUUUUUACGUGUUCUGGAAGAUGGAGUCCAUUCCUUUUCCCCAUUUUAAUUGAUUUUUCCAAGUAUCGCCUGGCCUCCAACAGAGGAUUGAGCAUCA
B19: chr3:148802587:148802588:-_ENSG00000071794_ENST00000310053|hu_mus|hu_hu_hu_mus_False|38_108 (ssRNA)
RNA: GGGAGUUCUACAGUCCGACGAUCUCCAACCACAUGACCUCUCAUAGUUCCAAAUAAAACCAAAUCUUGCUCUUCAUCACUCGUUAGGAAGUCAUCUGGAGGGAUAAUGUCUUGGAAUUCAAAAUGUGGCAAGAAAGUUGAGUACAACAGAGGAUUGAGCAUCA
B20: chr5:68498363:68498364:+_ENSG00000153044_ENST00000283006|hu_hu|FALSE|FALSE (ssRNA)
RNA: GGGAGUUCUACAGUCCGACGAUCUUUUUCCUCUAAAUCCCAAGAUUCCUGCUGUGAUUUCAUUAUUAAUUUAUUUAGCUCUAAUAGGUGUUUCAUGUUAUCCAUGAGCACACUAGACUGUCUGCUAAUUUUCUCCAGGUUUUUCAACAGAGGAUUGAGCAUCA
B21: chr17:39847130:39847131:+_ENSG00000173812_ENST00000469257|hu_mus|FALSE|FALSE (ssRNA)
RNA: GGGAGUUCUACAGUCCGACGAUCAUUACAUUAUACAAGCUGUGAGGUUUUUAAACUUGUGACAAGGGACAGAAGGGAAAUUCUACUCAUUGCAAGGAAAUCCUCACUUAAGCUUCAGAGAGCCACAAGCACUUAAAACCCAUGCAACAGAGGAUUGAGCAUCA
B22: 42714126_42714758_5631_CDS_ENSG00000103994_ENST00000263805|human|control|control (ssRNA)
RNA: GGGAGUUCUACAGUCCGACGAUCGAUGGUCAUACACAUAAUCAUGUCUUUGUGUCCUCCAUAAACUUGUAAUCGAUCAUGAGACUGUAAUUCAUAGACACGAACAAAUUUAUCCAGGCAAGCAGUCACCAUCACUUUUCCUAGCAACAGAGGAUUGAGCAUCA

Each binder was assayed against T1, UNK ZnF1-3 (human, UniProt Q9C0B0 31-174) (assay: nsRBNS (natural sequence RNA bind-n-seq); RBNS binding buffer (assumed for nsRBNS): 25 mM Tris pH 7.5, 150 mM KCl, 3 mM MgCl2, 0.01% Triton X-100, 500 ug/ml BSA, 20 U/ml SUPERase-In, 4 C; UNK is unkempt and MSI1 is Musashi-1; names of the RNAs are library labels; protein concentration not given here; high values mean tight binding).
T1 sequence: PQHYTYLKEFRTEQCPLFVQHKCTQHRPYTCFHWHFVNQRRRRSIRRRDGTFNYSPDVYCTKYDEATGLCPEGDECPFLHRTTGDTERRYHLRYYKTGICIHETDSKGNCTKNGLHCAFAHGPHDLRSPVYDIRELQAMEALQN
With B1 the binding signal was 0.624 enrichment R. B2 was tested, and the binding signal was 1.37 enrichment R. Binder B3 has a binding signal of 1.16 enrichment R. Work on B4 yielded a binding signal of 0.774 enrichment R. B5 was tested, and the binding signal was 1.2 enrichment R. B6 gave a binding signal of 1.27 enrichment R. Work on B7 yielded a binding signal of 0.582 enrichment R. For B8, the binding signal was 0.848 enrichment R. B9 gave a binding signal of 1.53 enrichment R. B10 was tested, and the binding signal was 1.03 enrichment R. B11 was tested, and the binding signal was 1.51 enrichment R. B12 showed a binding signal of 0.94 enrichment R. Work on B13 yielded a binding signal of 0.473 enrichment R. B14 gave a binding signal of 0.404 enrichment R. B15 gave a binding signal of 0.624 enrichment R. For B16, the binding signal was 0.674 enrichment R. B17 showed a binding signal of 1.4 enrichment R. For B18, the binding signal was 0.654 enrichment R. B19 was tested, and the binding signal was 1.22 enrichment R. B20 showed a binding signal of 0.594 enrichment R. For B21, the binding signal was 1.3 enrichment R. With B22 the binding signal was 1.12 enrichment R.
